Patent EP3138561A1 (priority 2014, dated 2015)

Assays:
Burkholderia cepacia = conditions: 0.05%, 0.1%, and 0.2% solutions
Pseudomonas aeruginosa = conditions: 0.02 wt%, 0.05 wt%, and 0.1 wt% solutions

In the case of `CC1CCC(C(C)C)C(OC(=O)C[N+](C)(C)CCCCCCCCCC[N+](C)(C)CC(=O)OC2CC(C)CCC2C(C)C)C1` (stereo not shown) [decamethoxine, 1,10-decamethylene-bis(N,N-dimethyl-menthoxycarbonylmethyl)ammonium dichloride], the Mean therapy time (Burkholderia cepacia) is reported as 5 days, the “bronchospasm or cough on inhalation” value (Pseudomonas aeruginosa) is reported as “no bronchospasm or cough had been observed” and the “creatinine and urea levels” value (Pseudomonas aeruginosa) is reported as “no increase in creatinine and urea levels”. The tolerance of inhalations (Pseudomonas aeruginosa) was “well tolerated”.
